The chains are these.
B1: CPEB3 Ribozyme (parent)
chain: UAACAGGGGGCCACAGCAGAAGCGUUCACGUCGCAGCCCCUGUCAGAUUCUGGUGAAUCUGCGAAUUCUGCUGUAUAUCUC

The source gives no read counts; variants with many changes may rest on few reads.

The variants in this data set derive from B1. Put plainly: self-cleavage, relative activity (ratio to wild type); higher = more cleavage; in vitro, sequencing. Put shortly:
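After error-prone PCR and barcoding, CPEB3 ribozyme mutant libraries were transcribed with T7 RNA polymerase at 37°C for 5 hours, then given 15 min with DNase I before an EDTA stop, and they cleaved during both steps. Reverse transcription with template switching preceded Illumina sequencing. Relative activity divides a variant's cleaved/total read fraction by the unmutated ribozyme's. At least 5 reads were required per variant, and three batches were averaged.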
Take A15U G30U G36A: the self-cleavage was found to be 0.07.
As to G16A A20G G30A U31A A64G, the self-cleavage worked out at 0.06.
Next, A15U A28G A47G U67C: 0.09; A15U A18U A35U A56C U76C: 0.2; A15U U26G U51C A56G U72A: 0.12.
Next, A15U U25G A57U U69A: 0.11; A15G U48C U69A: 0.14; G16A U25A U26C G33A: 0.06.
The figure for A15U A18G U41A U48A is 0.07; for C17G C40A U49C U54C it is 0.2.
For the variant A15G U60G U69C, the self-cleavage was 0.15.
Next, A15G U43G U58A U74C: 0.22; G16C C40U U41C U60A: 0.08.
The figure for A15U U25C A35U A45U G53U is 0.11.
Next, C17A U25C A28U A35G C40U A56G: 0.11; A15U G19U A57G C62U: 0.05; A15U U54A U58C U78C: 0.52.
Turning to A15G U54C A64G, the self-cleavage amounted to 0.13.
Next, A15U G46C U72C: 0.18; A15U A21G U31A C38A U60A: 0.2.
Next, A15U A20U A56G A57G A64U U72A U80C: 0.04; A15G U58C A77G: 0.41; A15U U31C A35G: 0.88.
Regarding A15U A20U U54A, the self-cleavage turned out to be 0.19.
As to A15U U49C C50U U54A U60C U80C, the self-cleavage was determined as 0.08.
Next, G16U U25C U41C U66C: 0.06; A15U C27U C32A C71U U74G: 0.07.
Next, A15G U48G U69A: 0.2.
As for A15U U26A A28G C29U U69A, the self-cleavage amounted to 0.05.
Next, A15U A20G U26A A35G A56U A65U U78C: 0.26; A15U U25C U67C U78C: 0.07; A15U U26C U41C U78A U80A: 0.65.
Next, A15U A35G U41C U51A U67C A77G: 0.79.
In the case of A15G U54C U58C, the self-cleavage was 0.42.
The figure for A15G U43A A45C C62U U78A is 0.17.
In the case of A15U C40U A45U, the self-cleavage turned out to be 0.15.
Next, A15U U48A U60C: 0.09; A15U C32U U41C A57G U58C G61U U78A: 0.06; A15G U60A U80C: 0.34.
Regarding A15G U49C U54G C62U U66C, the self-cleavage came to 0.09.
For A15U A21G U41A U43C U69A, the self-cleavage was determined as 0.53.
The figure for A15G U48A U49C U58G is 0.18.
A15U U67A U80A: the self-cleavage stood at 0.05.
The figure for G16A A45G U49C U69C is 0.05; for A15U A56U A75U it is 0.53.
Next, A15U G24A A56G: 0.17; A15U U26C U60C: 0.15.
C17G A28U A45U A47G: the self-cleavage was 0.17.
Next, A15U U25C U66C: 0.06.
Next, G16A U31A U51A A56G U74C: 0.36; A15U G55A U66C U67C: 0.12.
For the variant A15U C29U G55U U60A A65G, the self-cleavage worked out at 0.1.
In the case of G16A A28U U43A, the self-cleavage is 0.19.
For C17A A47G U48C, the self-cleavage worked out at 0.06.
For the variant A15U U31C U51G A57G C59U, the self-cleavage amounted to 0.08.
As for A15U A56G U74G, the self-cleavage was 0.39.
Next, A15U A21G C39U U51C U60A: 0.47; A15U U25C C29U U51C G55A: 0.07.
The figure for C17A U41C A45U C50U A64U U78C U80C is 0.07.
Next, A15U A45G U49A U72A: 0.08.
As for A15U C40U A56G U60C A64G, the self-cleavage turned out to be 0.15.
The figure for A15U G19A G42A A45U A64G U74A is 0.05.
The figure for A15U U48C U80C is 0.29; for A15G U43A U49C it is 0.38.
In the case of A15U U31C A35U U60C, the self-cleavage stood at 0.1.
A15U C23G A28U: the self-cleavage was 0.24.
The figure for A15G U54C U60A A64U is 0.15.
Take A15G U54A U69C U78A: the self-cleavage was 0.25.
Next, G16C C29A U31A G52U: 0.23; A15U A18C U26A A64G U74A: 0.16; G16U A20G U26G U76A U80C: 0.07.
Next, A15U A45G A65G: 0.04; A15G U54A C62U U67G: 0.24.
Take A15U U26C A28U U43C U58C U67C C79U: the self-cleavage turned out to be 0.
The figure for A15U A35G A47G U48C U66A U74C is 0.16; for G16A A28G C32U A35U C38U it is 0.06; for A15U G53A U54C A65G it is 0.12.
Take A15U C17G A21U A28G A45G U74C: the self-cleavage turned out to be 0.28.
The figure for A15G U66C U69A C71U is 0.17; for A15U C44U U51C it is 0.12.
Next, A15U A21U C68G: 0.14.
The figure for A15U U26C A28G C39A U41C U48A U51C is 0.05; for G16A A56U U58C U60G U72A U78C it is 0.06; for A15U A18C U43C A45U U49C U74A it is 0.07.
Consider C17A U25C A28U A35G C40U U41C, for which the self-cleavage was 0.06.
The figure for G16C G24C U43A is 0.05; for G16U A18C U80A it is 0.21; for A15U U74G A75G it is 0.87.
Turning to G16U U25C A56U U60A U78C, the self-cleavage was 0.09.
Next, A15U U49C U76C A77C: 0.17.
With A15U U66A U67A, the self-cleavage amounted to 0.17.
The figure for C17G A18U U49C U72A is 0.09; for A15U U31C U54C it is 0.48; for A15U U26C U43A A64U U78A it is 0.07.
A15U A20G A28G U80G: the self-cleavage was determined as 0.12.
Next, A15G U41C U66C U69C U76C: 0.37; A15U A20G U66C U69C: 0.12.
The figure for C17G A28U U49C is 0.05; for A15U C37U U51C U66C it is 0.16.
The figure for A15U U26A C34G U58C is 0.07.
A15U A18G C37A A47U U49C U54C U72A: the self-cleavage was 0.07.
The figure for A15U C23U U26C U51A is 0.05.
The figure for A15U A21U G46U U80C is 0.22; for A15U U54C A77U U80C it is 0.95; for A15U U31C U43C U74A it is 0.23.
The figure for A15U G42A G61C U66C U67A U78C is 0.12.
On to G16A U25C U51A U74C, for which the self-cleavage is 0.24.
The figure for A15U A21C U41C A56G U60C is 0.08; for A15U U48C U51C U72C it is 0.25.
Next, G16A A18U U26C U31C: 0.14; A15U C27U U43A: 0.17.
Next, A15U C38A G42A: 0.05; G16C U41C U54A: 0.16; G16A A35G U66C: 0.25.
Turning to A15U A18U U26C U41A, the self-cleavage came out at 0.07.
A15U A18C A45U A65G U80C: the self-cleavage was 0.03.
Next, A15G U60C A64G: 0.19; A15U U25C G53A U54C U78C U80A: 0.25.
The figure for A15U A35G U67C is 0.59; for A15U A64G U67G it is 0.17.
The figure for A15G U41C U76C is 0.88; for A15U A18G A20G U54C it is 0.32.
In the case of A15U A35G U72C, the self-cleavage is 1.28.
As to A15U A35G A56G U72C, the self-cleavage was 1.22.
The figure for G16U U26A C40U A57G is 0.05; for G16A A20G C40U it is 0.17.
The figure for A15U U26G A57C is 0.11.
Regarding A15U A18U A20G U25A A35G, the self-cleavage is 0.08.
The figure for A15U G22C C27G U51A is 0.11; for G16C U25C U31C U41C A65U A77U it is 0.05; for G16A U25A A28U U41C U49C C59U U66C it is 0.03.
The figure for A15U A64G A77G is 0.43.
The figure for A15U A21G A47G U48C U80C is 0.06; for A15U U25C G33A U54C C62U U67C it is 0.19.
Regarding C17A U49A U69A, the self-cleavage was 0.16.
Consider A15U A28G U54A U58A U67C, for which the self-cleavage was 0.08.
As to C17G A64U U69C, the self-cleavage was 0.12.
Next, A15U U31C A64G: 0.13; A15G U43C U51C: 0.19.
For A15G U54C U60C, the self-cleavage came to 0.49.
Next, A15U U26C U49C U60C A65G U67A: 0.14; A15U U26A U41G A47G: 0.2; A15U A57G A64G U72C: 0.23.
The figure for A15G U67A U80C is 0.24; for A15U A28G G36U A64U it is 0.09; for A15U U26C G36U it is 0.35.
The figure for A15U A35G C40A U51C A64G is 0.2; for A15G U43A G53U U72C A75G it is 1.3; for G16U U31C A35G U49G it is 0.12.
For the variant G16U A20G G33A A35U U80G, the self-cleavage is 0.12.
With C17G G19A A47G A56G U60C G73A, the self-cleavage was found to be 0.1.
Next, A15U U25C U31A G42A: 0.19; C17A C23A A28G A35U: 0.26; A15U U54C U76A: 0.96.
With A15U A18U U43C U48C U51C U72C, the self-cleavage came out at 0.12.
The figure for A15U C37U U74C is 0.48; for A15G U43A U49C A57U U67C it is 0.1; for A15U U43A A57G U58C it is 0.18.
Next, A15U A18U U67G U72C: 0.36.
Next, G16A A35G G46A G70C A75G: 0.18; G16A A20U A21G G36A A47G U51C: 0.19; G16C A21G U80C: 0.23.
Take G16A A45G G46A U51A A56G A57U A64G: the self-cleavage came out at 0.06.
Next, G16A U26A G33C U58C: 0.14.
The figure for A15U U43C A65G is 0.26.
The figure for A15U A20G A64G U69A U78C is 0.05.
Consider A15U C37A G63U, for which the self-cleavage worked out at 0.43.
